Source: the supplement of paper PMC4967469
Lines with a small IC50 respond at low doses; a limit (>, <) means that the fit lies beyond the doses tested. AUC is the area under the same curve over the 256-fold range up to the top dose, as a fraction: 1 means no effect, lower means more sensitive. For part of these data: An inferred top dose is not printed in the source and was worked back from the curve model. For part of these data: An entry number marks a drug with two screens in the source, which often give different values.

Legend:
Assay in all cases: Viability of human cancer cell lines after 72 h of drug (GDSC screen)
WH-4-023 = compound: COc1ccc(N(C(=O)Oc2c(C)cccc2C)c2ccnc(Nc3ccc(N4CCN(C)CC4)cc3)n2)c(OC)c1 [WH-4-023]; settings: top dose 5.12 µM; top dose inferred
Procedure: (§1)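 Human cancer cell lines in 384-well plates, medium with 10% serum, drug for 72 h over a 256-fold dose range (nine 2-fold or five 4-fold steps up to the top dose). Adherent lines were fixed and stained with the nucleic acid dye Syto60, suspension lines read with resazurin; signal relative to control wells, capped at 0 and 100%. One two-parameter sigmoid per drug and line, fitted in a mixed model over all curves with the slope shared within a line.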

UNC0638 = compound: COc1cc2c(NC3CCN(C(C)C)CC3)nc(C3CCCCC3)nc2cc1OCCCN1CCCC1 [UNC0638]
Procedure: as §1

GSK690693 = compound: CCn1c(-c2nonc2N)nc2c(C#CC(C)(C)O)ncc(OC[C@H]3CCCNC3)c21 [GSK690693]; settings: top dose 10.24 µM; top dose inferred
Procedure: as §1

PI-103 = compound: Oc1cccc(-c2nc(N3CCOCC3)c3oc4ncccc4c3n2)c1 [PI-103]; settings: top dose 10.24 µM
Procedure: as §1

Tretinoin = compound: CC1=C(/C=C/C(C)=C/C=C/C(C)=C/C(=O)O)C(C)(C)CCC1 [Tretinoin]; settings: top dose 10 µM; top dose inferred
Procedure: as §1

SB-505124 = compound: Cc1cccc(-c2[nH]c(C(C)(C)C)nc2-c2ccc3c(c2)OCO3)n1 [SB-505124]; settings: top dose 10 µM; top dose inferred
Procedure: as §1

BX-795 = compound: O=C(NCCCNc1nc(Nc2cccc(NC(=O)N3CCCC3)c2)ncc1I)c1cccs1 [BX-795]; settings: top dose 5 µM; top dose inferred
Procedure: as §1

[1] = top dose 20 µM, screen: GDSC drug entry 1236, top dose inferred
[2] = top dose 40 µM, screen: GDSC drug entry 245

Cell Line	AUC (WH-4-023)	IC50 (WH-4-023)	AUC (UNC0638; [1])	IC50 (UNC0638; [1])	AUC (UNC0638; [2])	IC50 (UNC0638; [2])	AUC (GSK690693)	IC50 (GSK690693)	AUC (PI-103)	IC50 (PI-103)	AUC (Tretinoin)	IC50 (Tretinoin)	AUC (SB-505124)	IC50 (SB-505124)	AUC (BX-795)	IC50 (BX-795)
BB65-RCC (kidney, adherent)	0.763	2.12 µM	0.966	> 20 µM	0.876	> 40 µM	0.979	> 10.2 µM	0.805	6.13 µM	0.968	> 10 µM	0.972	> 10 µM		
COLO-829 (melanoma, adherent)	0.488	0.292 µM	0.817	19 µM	0.625	6.49 µM	0.941	> 10.2 µM	0.442	0.412 µM			0.975	> 10 µM		
ES3 (Ewing sarcoma, adherent)	0.98	> 5.12 µM	0.737	6.19 µM	0.736	12.3 µM	0.512	0.693 µM	0.433	0.417 µM			0.968	> 10 µM	0.806	2.71 µM
H-EMC-SS (chondrosarcoma, adherent)	0.738	1.91 µM			0.856	> 40 µM	0.885	> 10.2 µM	0.63	1.63 µM					0.876	> 5 µM
HCE-4 (oesophagus, adherent)	0.922	> 5.12 µM	0.896	18.4 µM	0.982	> 40 µM	0.992	> 10.2 µM	0.992	> 10.2 µM			0.983	> 10 µM		
HEL (acute myeloid leukaemia, semi-adherent)	0.986	> 5.12 µM	0.843	10.8 µM	0.757	11.7 µM	0.99	> 10.2 µM	0.535	0.786 µM			0.991	> 10 µM		
HL-60 (acute myeloid leukaemia, suspension)	0.99	> 5.12 µM	0.832	11 µM	0.725	10.1 µM	0.968	> 10.2 µM	0.293	0.179 µM			0.98	> 10 µM	0.83	2.72 µM
HT-144 (melanoma, adherent)	0.895	> 5.12 µM	0.806	11.7 µM	0.814	25.1 µM	0.984	> 10.2 µM	0.971	> 10.2 µM			0.982	> 10 µM	0.892	> 5 µM
Hs-445 (Hodgkin lymphoma, suspension)	0.964	> 5.12 µM	0.825	10.8 µM	0.744	11.7 µM	0.671	1.84 µM	0.334	0.23 µM			0.987	> 10 µM		
IST-MES1 (mesothelioma, adherent)	0.405	0.176 µM	0.836	13.4 µM	0.807	20.8 µM	0.987	> 10.2 µM	0.96	> 10.2 µM			0.986	> 10 µM		
JAR (urogenital system, adherent)	0.967	> 5.12 µM	0.762	6.99 µM	0.883	> 40 µM	0.884	> 10.2 µM	0.729	2.82 µM			0.808	5.06 µM	0.868	4.4 µM
KALS-1 (glioma, adherent)	0.869	> 5.12 µM	0.732	7.48 µM	0.646	7.41 µM	0.83	10 µM	0.458	0.471 µM			0.924	> 10 µM		
KASUMI-1 (acute myeloid leukaemia, suspension)	0.973	> 5.12 µM	0.728	5.57 µM			0.322	0.204 µM	0.09	< 0.04 µM	0.93	> 10 µM	0.96	> 10 µM		
KG-1 (acute myeloid leukaemia, suspension)	0.9	> 5.12 µM	0.986	> 20 µM	0.796	16.5 µM	0.987	> 10.2 µM	0.301	0.19 µM			0.971	> 10 µM	0.861	3.52 µM
KMS-12-BM (myeloma, suspension)	0.983	> 5.12 µM			0.671	6.79 µM	0.829	4.91 µM	0.236	0.131 µM	0.833	4.95 µM				
KNS-81-FD (glioma, adherent)	0.977	> 5.12 µM	0.944	> 20 µM	0.646	7.37 µM	0.958	> 10.2 µM	0.768	5.21 µM			0.911	> 10 µM	0.916	> 5 µM
LB996-RCC (kidney, adherent)	0.279	0.0677 µM	0.981	> 20 µM	0.977	> 40 µM	0.98	> 10.2 µM	0.983	> 10.2 µM			0.981	> 10 µM	0.869	> 5 µM
LB2241-RCC (kidney, adherent)	0.978	> 5.12 µM	0.931	> 20 µM	0.976	> 40 µM	0.984	> 10.2 µM	0.98	> 10.2 µM	0.979	> 10 µM	0.946	> 10 µM		
LC-2-ad (lung adenocarcinoma, adherent)	0.189	0.0365 µM	0.814	11.3 µM	0.625	5.6 µM	0.925	> 10.2 µM	0.42	0.385 µM			0.984	> 10 µM	0.714	1.28 µM
LNCaP-Clone-FGC (prostate, adherent)	0.972	> 5.12 µM	0.74	6.79 µM	0.631	6.05 µM	0.233	0.0945 µM	0.32	0.186 µM			0.88	> 10 µM	0.942	> 5 µM
